The supplement of paper PMC3334620
Whole data set: some 33,000 sequences, median “E-score (-0.5 to 0.5)” near -0.012, cut for the highest 2% near 0.29. The list shows a part of the results.

What follows are sequences tested against T1, Ybr033w (UniProt P38073) (assay: PBM E-score (8-mer binding enrichment) (E-score (-0.5 to 0.5)); higher = stronger / more preferred TF binding; most listed sequences are background and not binding sites). Details: protein concentration: 200 nM; construct: GST-full length.
T1 sequence: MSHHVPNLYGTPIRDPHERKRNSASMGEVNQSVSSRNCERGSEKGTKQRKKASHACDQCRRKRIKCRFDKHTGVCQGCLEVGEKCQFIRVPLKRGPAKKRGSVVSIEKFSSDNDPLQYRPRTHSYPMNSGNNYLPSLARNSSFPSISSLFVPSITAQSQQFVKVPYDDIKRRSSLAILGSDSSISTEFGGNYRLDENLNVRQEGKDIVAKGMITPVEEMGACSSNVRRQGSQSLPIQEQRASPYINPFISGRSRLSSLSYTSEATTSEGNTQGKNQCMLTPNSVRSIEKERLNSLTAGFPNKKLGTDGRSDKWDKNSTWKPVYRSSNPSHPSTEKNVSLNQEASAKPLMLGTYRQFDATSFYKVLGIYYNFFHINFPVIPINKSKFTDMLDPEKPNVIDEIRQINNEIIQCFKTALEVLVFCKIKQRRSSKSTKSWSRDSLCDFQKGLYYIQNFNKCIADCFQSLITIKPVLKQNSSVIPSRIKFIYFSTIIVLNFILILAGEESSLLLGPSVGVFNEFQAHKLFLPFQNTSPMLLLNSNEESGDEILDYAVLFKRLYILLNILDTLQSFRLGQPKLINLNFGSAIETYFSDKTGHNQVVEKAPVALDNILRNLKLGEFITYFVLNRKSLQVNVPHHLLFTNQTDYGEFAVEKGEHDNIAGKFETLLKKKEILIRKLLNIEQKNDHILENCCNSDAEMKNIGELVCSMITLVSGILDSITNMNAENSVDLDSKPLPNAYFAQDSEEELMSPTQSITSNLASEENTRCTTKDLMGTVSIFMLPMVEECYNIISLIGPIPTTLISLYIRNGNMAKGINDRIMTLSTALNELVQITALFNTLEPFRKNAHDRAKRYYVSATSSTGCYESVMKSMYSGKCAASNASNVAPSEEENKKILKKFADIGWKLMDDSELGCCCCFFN
Method: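 Universal 'all 10-mer' protein binding microarrays (Agilent AMADID 015681) probed with GST-tagged S. cerevisiae TFs (full-length or DBD) made by in vitro transcription/translation (PURExpress), about 100-200 nM. Bound TF was detected with fluorescent anti-GST. Each ungapped 8-mer (which stands for itself and its reverse complement) is scored by the PBM enrichment score (E-score), a modified Wilcoxon-Mann-Whitney statistic from -0.5 to +0.5, computed with the Universal PBM Analysis Suite. Scale: above 0.35 generally sequence-specific binding.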

Row | Sequence | PBM E-score
1 | AGACGGCG | -0.0817
2 | CTCATGAC | -0.145
3 | GAGGGATA | -0.182
4 | CTAACCCC | -0.317
5 | GGATCTAA | -0.0711
6 | CGCTTACG | -0.0972
7 | ATTACGTG | -0.0334
8 | ACACTCCA | -0.0609
9 | CTATCAGC | 0.0765
10 | CCATTGAA | 0.151
11 | GGATCGTA | -0.0932
12 | GTCGGCTA | 0.00209
13 | ACAAAGCT | -0.0646
14 | AATAGTAG | 0.201
15 | CGCAATTA | 0.11
16 | GTTTGATA | 0.177
17 | GTCATACA | 0.108
18 | AAAGTACG | 0.0441
19 | ATTATACC | 0.179
20 | CTCTAGTC | -0.138
21 | TGACCCAA | 0.00837
22 | ATATTGCA | 0.12
23 | TAGCCAAA | 0.199
24 | AGTGCATG | -0.0746
25 | ATATCGCC | 0.0794

Row | Sequence | PBM E-score
26 | GCCTTCAA | -0.00041
27 | ACTTTCAC | 0.117
28 | CAACCGTC | -0.105
29 | AACACACT | 0.121
30 | CCTAGCGC | -0.137
31 | AGTCGGAG | -0.133
32 | GGCACGTA | -0.0905
33 | ATACGGGG | -0.301
34 | CTTTCGAC | -0.0312
35 | GCAACGGC | -0.0796
36 | AAACTGGC | -0.0686
37 | ATCAGAAC | 0.0471
38 | CCTTGCGA | -0.0942
39 | AGGGGGTA | -0.412
40 | AGCTGGCA | -0.0445
41 | ACGCATAA | 0.0931
42 | ACACATTA | 0.0927
43 | GCCACTAC | -0.138
44 | AGCCCTGG | -0.252
45 | GGCCCTCA | -0.283
46 | GACATCTC | -0.0385
47 | AAGAGGTA | 0.0628
48 | TATGCGAA | -0.0155
49 | AACGCTTA | 0.0224
50 | CGTTGTAG | -0.0702

Row | Sequence | PBM E-score
51 | CTTAGGCA | -0.109
52 | ACCGTCAC | -0.136
53 | CATTTGGG | -0.0721
54 | AAGTCTAT | -0.00931
55 | CAAAGGAA | 0.233
56 | AGGTATCG | 0.0829
57 | CGCTATTA | 0.143
58 | CTGGGGTC | -0.157
59 | CACCAATA | 0.129
60 | GAGCCGTA | 0.133
61 | GCAATTCA | 0.119
62 | CGCACGTC | 0.00576
63 | ACCTGCTC | -0.209
64 | AGCTGGCG | -0.267
65 | CCCCACTC | -0.227
66 | TAGAGTGA | -0.167
67 | CATGTAAC | 0.00379
68 | AGACTAAT | 0.138
69 | ACCAGATA | 0.132
70 | AGCAATTA | 0.166
71 | AATGACTG | 0.0912
72 | GGTGAACA | -0.24
73 | AACTGAGG | -0.0282
74 | ACGCAATC | -0.0299
75 | ACGTTCCA | 0.0552

Row | Sequence | PBM E-score
76 | AACTAGGT | 0.175
77 | CCTGGACG | -0.331
78 | AAATCTCT | 0.152
79 | GTAACTAC | 0.16
80 | CGACAGAC | -0.125
81 | CGGAGGCA | 0.038
82 | ATTCCGAC | 0.157
83 | AGGTACAA | -0.028
84 | CGAAGCCA | -0.107
85 | AACCACAA | 0.151
86 | GCGCCTTA | 0.0244
87 | AGTGGACG | -0.0183
88 | ACTATTTG | 0.248
89 | GACCCCGC | -0.258
90 | AACCTGTA | 0.0214
91 | CTTGGCTA | 0.00737
92 | CCCAGGAA | -0.0507
93 | CCACCCTC | -0.0745
94 | ATTCGAAT | 0.15
95 | GAAGACGA | 0.0151
96 | ACGTTGCA | -0.0209
97 | ATGCCGAA | -0.0288
98 | CGCCTCAA | -0.125
99 | AATCCGGA | 0.172
100 | AATGCGTG | -0.05

Row | Sequence | PBM E-score
101 | CACTTTTA | 0.0413
102 | CGTGTGTA | 0.123
103 | GTTAGACA | 0.218
104 | GTCGAGTA | -0.00604
105 | AACGCGAA | 0.0565
106 | AGTGAGTA | 0.185
107 | ACGCCGCC | -0.292
108 | CGGTGACG | -0.0845
109 | GCGCGCAC | -0.0608
110 | CTCATCTC | -0.132
111 | ATAACTAT | 0.199
112 | TACTAATA | 0.185
113 | GGCATGAC | -0.259
114 | ATTGAAGC | 0.059
115 | CCAACACA | 0.12
116 | TATTTGAA | 0.255
117 | AATCGCAT | 0.219
118 | AAGGTCTA | 0.04
119 | CTTAGACA | -0.124
120 | ACTCATAC | 0.184
121 | CCAGCGGC | -0.0519
122 | CTAGTAGC | 0.0422
123 | GCCCAGAA | 0.0667
124 | CCTTAGCG | -0.178
125 | GCCTTGAC | -0.218

Row | Sequence | PBM E-score
126 | AAGTAACA | 0.168
127 | AAAAAGGT | 0.185
128 | ACTACGAG | 0.102
129 | CCTGCTCA | -0.156
130 | CCGCTGAA | -0.0978
131 | GCGGCGAA | -0.022
132 | GGGCTTAA | -0.0348
133 | ATTGTAGA | 0.295
134 | TAGTAGAA | 0.096
135 | GGGGTACC | -0.351
136 | CTGGGGAC | -0.252
137 | ACTTGGTA | 0.161
138 | ATACAGTG | 0.108
139 | AGTTATTC | 0.345
140 | GTCGTGCA | -0.0611
141 | AAAGACTG | -0.13
142 | AAGCCTTA | -0.123
143 | CCATACGC | 0.149
144 | AGTGGTTA | 0.0512
145 | AGGGTAGG | -0.0794
146 | ACGGAGCA | -0.112
147 | ACTTTACT | 0.0462
148 | CCTCCACC | -0.149
149 | CAACTGGC | -0.05
150 | ACGATCAA | 0.186

Row | Sequence | PBM E-score
151 | GCTGACCC | -0.209
152 | GAGATCGA | 0.0538
153 | TGCGCGAA | 0.172
154 | TCCATCGA | 0.103
155 | AAATCGCG | 0.134
156 | GGTAGAGA | -0.0192
157 | TCTACTAA | 0.23
158 | CAATACCA | 0.184
159 | GGCTCTTA | -0.0701
160 | AACCTCAA | -0.0448
161 | CATATGCG | -0.00642
162 | CGTATTTC | 0.0631
163 | GTCCGGTA | -0.284
164 | ATTTACCG | 0.132
165 | TCGGAAGA | 0.193
166 | ATGGGGTA | 0.0125
167 | GATTCGAC | 0.0558
168 | ATGGATCC | -0.134
169 | CGAGGACG | -0.322
170 | GGGTTGTA | -0.0949
171 | GTACCAAA | 0.164
172 | CGTGTCGC | 0.0894
